Results reported in article PMC4336329 (PLoS ONE, 2015).
Out of some 310,000 compounds screened, about 14,000 (4.5%) showed an effect of 50% or more. The effect is printed as a negative number. The list shows a part of the results.

Target: human ether-à-go-go-related gene (hERG) potassium channel (human, UniProt Q12809)
Test: primary screen, population patch clamp on CHO cells stably expressing hERG
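Also: peak tail current of the secondary pulse compared with the same well before compound.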

Sequence of human ether-à-go-go-related gene (hERG) potassium channel (Q12809 whole entry, looked up): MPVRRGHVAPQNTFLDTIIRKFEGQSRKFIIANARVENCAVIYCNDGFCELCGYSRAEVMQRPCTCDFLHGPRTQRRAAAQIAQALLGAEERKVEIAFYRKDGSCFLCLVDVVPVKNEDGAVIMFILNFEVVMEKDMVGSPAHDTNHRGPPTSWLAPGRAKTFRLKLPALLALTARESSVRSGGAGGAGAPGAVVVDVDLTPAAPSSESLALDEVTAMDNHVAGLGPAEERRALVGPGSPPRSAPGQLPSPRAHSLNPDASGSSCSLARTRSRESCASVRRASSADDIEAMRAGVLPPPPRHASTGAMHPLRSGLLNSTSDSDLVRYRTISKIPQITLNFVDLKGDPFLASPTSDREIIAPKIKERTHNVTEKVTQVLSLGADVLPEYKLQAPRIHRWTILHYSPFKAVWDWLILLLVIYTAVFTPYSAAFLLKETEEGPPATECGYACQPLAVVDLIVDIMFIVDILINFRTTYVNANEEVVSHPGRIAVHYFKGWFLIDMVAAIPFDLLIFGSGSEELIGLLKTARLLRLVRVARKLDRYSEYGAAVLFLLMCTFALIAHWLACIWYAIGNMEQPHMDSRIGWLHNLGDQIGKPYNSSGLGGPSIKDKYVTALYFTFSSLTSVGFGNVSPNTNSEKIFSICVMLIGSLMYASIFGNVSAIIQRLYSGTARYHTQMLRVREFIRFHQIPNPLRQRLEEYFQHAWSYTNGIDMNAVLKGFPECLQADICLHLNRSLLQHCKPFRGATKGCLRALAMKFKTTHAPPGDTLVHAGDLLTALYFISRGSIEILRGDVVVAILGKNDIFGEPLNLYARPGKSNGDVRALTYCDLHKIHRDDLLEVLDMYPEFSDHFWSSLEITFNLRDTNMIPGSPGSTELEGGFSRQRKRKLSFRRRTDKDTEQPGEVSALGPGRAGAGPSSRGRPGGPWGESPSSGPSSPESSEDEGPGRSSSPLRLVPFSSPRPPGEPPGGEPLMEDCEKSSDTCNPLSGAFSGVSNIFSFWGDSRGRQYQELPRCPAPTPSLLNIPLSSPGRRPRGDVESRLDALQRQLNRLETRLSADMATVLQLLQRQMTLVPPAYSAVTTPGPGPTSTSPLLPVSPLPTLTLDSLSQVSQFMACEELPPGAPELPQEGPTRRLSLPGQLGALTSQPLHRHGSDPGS

SMILES	hERG current change (%, negative = inhibition) at 10uM [%]
O=C(Nc1ccc(Nc2ccccc2)cc1)c1ccc(Br)cc1	9.51
COc1ccc(Cl)cc1C(=O)NNC(=O)CN1C(=O)C2CC=CCC2C1=O (stereo not shown)	14.3
COc1ccc(C(=O)/C=C/N(C)C)cc1OC	7.92
Cc1cc(C(=O)CSc2nn3c(=O)c(C(C)(C)C)nnc3s2)c(C)n1C1CC1	22.4
Cc1ccc(S(=O)(=O)N2CCN(C(=O)n3ccnc3)CC2)cc1	-5.76
Cc1ccc(NC(=O)CSc2nc(N)c3cc4c(nc3n2)CCCC4)cc1	-2.94
COC(=O)c1ccc(-n2cc(-c3ccc(OC)cc3)[nH]c2=S)cc1	33.1
COc1ccc(S(=O)(=O)N2CCC(C(=O)NCCc3ccccc3)CC2)cc1	1.17
CN(CCc1ccccn1)C1CCCN(S(=O)(=O)c2ccc(F)c(Cl)c2)C1 (stereo not shown)	-48
CS(=O)(=O)O.Oc1ccc(C2CNCCc3c2cc(O)c(O)c3Cl)cc1 (stereo not shown)	-6.31
CCOC(=O)C(NC(=O)CC)(N1CCc2ccccc2C1)C(F)(F)F (stereo not shown)	-3
CCN(CC)c1ccc(/C=c2/sc3nnc(-c4ccccc4C)n3c2=O)cc1	8.65
C(=N\Nc1ccc2nncn2n1)/c1ccccn1	17.9
Cc1ccc2nc(-c3ccncc3)c(NC3CCCCC3)n2c1	9.35
CCCCN1CC(=O)N2[C@H]3c4ccc(OC)cc4OC[C@@H]3[C@H](C(=O)OCC)[C@]2(C)C1=O	7.39
CNC(C)c1ccc(S(N)(=O)=O)cc1 (stereo not shown)	25
Cc1nnc(SCCC(=O)Nc2ccc(F)cc2)s1	-3.32
COc1ccc(C2C(C(C)=O)=C(O)C(=O)N2c2nc3ccccc3s2)cc1OC (stereo not shown)	19.6
O=C(O)c1cccc(NS(=O)(=O)c2ccc3c(c2)C(=O)c2ccccc2C3=O)c1	11.3
Cc1cnc(C(=O)NCC(c2ccccc2)c2ccccc2)cn1	1.44
Cc1ccc[n+](CC(=O)Nc2ccc([N+](=O)[O-])cc2)c1.[Cl-]	10.9
Cc1cccc(NNC(N)=S)c1	17.7
CCNC(=O)C1(c2ccccc2)CCCC1	-7.36
CCOC(=O)C(C)NC(=O)Cn1ncc2c(=O)oc3ccc(C)cc3c21 (stereo not shown)	-8.99
CNC(=O)c1ccc(Nc2nnc(-c3ccc(C)c(S(N)(=O)=O)c3)c3ccccc23)cc1	5.67
